The whole screen tested about 1,300 compounds, of which about 25 (2%) were called active. Roughly 9% stayed inconclusive and do not appear here. Calls come from the whole dose curve; as a rule, active = well fitted activation curve with a large enough effect; inconclusive = small, poorly fitted or top-dose-only effect; inactive = flat fitted curve, though single readings scatter. The list shows a part of the results.
Target: Glucagon-like peptide 1 receptor (Homo sapiens) (UniProt P43220)
Assay: qHTS of GLP-1 Receptor Agonists: Hit Validation; for activation: % of control where 0% means no effect
Settings: HEK293 GLP-1R, cAMP-response luciferase, 4-6 h; series mostly up to 46.1 µM; activation: at the top concentration
Outline: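 HEK293 cells stably co-expressing a cAMP-responsive luciferase reporter and GLP-1R (hypersensitive receptor for weak agonists; wild-type line for confirmation) were plated 12 h at 37 °C, exposed to compound 4-6 h, then read by luminescence after 12 min detection reagent.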
Potency is the fitted concentration of half-maximal effect.

Chain of UniProt P43220 (P43220 whole entry, looked up): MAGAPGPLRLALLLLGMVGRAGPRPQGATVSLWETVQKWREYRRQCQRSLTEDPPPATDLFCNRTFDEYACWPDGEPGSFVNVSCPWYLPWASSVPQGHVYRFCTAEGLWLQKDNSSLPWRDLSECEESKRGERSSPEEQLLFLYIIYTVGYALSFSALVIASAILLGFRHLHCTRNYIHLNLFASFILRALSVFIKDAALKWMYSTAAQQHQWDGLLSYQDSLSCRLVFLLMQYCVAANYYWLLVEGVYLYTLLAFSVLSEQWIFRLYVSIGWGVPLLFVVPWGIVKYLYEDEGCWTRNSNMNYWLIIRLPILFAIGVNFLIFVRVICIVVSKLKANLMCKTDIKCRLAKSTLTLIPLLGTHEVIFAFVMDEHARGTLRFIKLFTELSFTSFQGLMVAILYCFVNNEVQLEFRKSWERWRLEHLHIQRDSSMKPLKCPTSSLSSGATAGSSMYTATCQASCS

activation, inactive:
Nc1ccc(Oc2cc(N)cc(Oc3ccccc3)c2)cc1 1.49%
Cc1cccc(-c2nc(C#N)c(N3CCCCCC3)o2)c1 10.5%
COc1cc2c(cc1OC)CN(C(=O)c1ccc(OC)c(S(=O)(=O)N3CCCC3)c1)CC2 4.14%
N#Cc1c(-c2ccco2)cc(C2CC2)nc1N 8.33%
COc1ccc(C(=O)Cc2ccccc2)cc1OC 1.93%
O=c1c2cc(Br)ccc2nc2n1CCCCC2 1.85%
O=C1C2CC=CCC2C(=O)N1c1ccc(NCCc2ccc(O)cc2)c([N+](=O)[O-])c1 (centres undefined) 9.29%
CN1CCN(CCCNC(=O)c2ccc(/C=C3\Oc4ccccc4N(Cc4ccccc4F)C3=O)cc2)CC1 22.9%
COc1cc(NC(=O)c2ccccc2)c(OC)cc1NC(=O)CN1CCCCC1 2.27%
C/C(=N/OC(=O)C1CC12CCC2)c1ccc(Br)cc1 (centres undefined) -0.501%
CCOc1ccc(CCNC(=O)COC(=O)COc2ccc(C(C)=O)cc2)cc1OCC -0.493%
Oc1ccc(NCc2ccccc2OCc2ccccc2F)cc1 3.23%
COc1ccc(NC(=O)C2(C)Cc3c(-c4cccc(C(F)(F)F)c4)ccnc3O2)cn1 (centres undefined) 6.6%
CCSc1cc(C)nc2c(-c3ccccc3)c(C)nn12 4.39%
CCOc1ccccc1COC(=O)c1cccc(-n2cnnn2)c1 4.07%
COc1ccc2nc(SC(C(=O)c3ccccc3)c3ccccc3)nc(C)c2c1 (centres undefined) 8.42%
Cc1ccc2oc(NC(=O)N3CCOCC3)cc(=O)c2c1 2.38%
COc1ccc(-c2c(C)nn3c(N)c(C#N)cnc23)cc1OC 12.2%
O=C(OCc1cccc(Cl)c1)c1cc([N+](=O)[O-])ccc1N1CCOCC1 8.42%
CC(=O)c1oc2ccccc2c1NC(=O)CN1CCCCC1 2.43%
COc1cc(NC(=O)C2CC(=O)NC3=C2C(=O)CCC3)c(OC)cc1Cl (centres undefined) 2.45%
CCOC(=O)c1cc(-c2ccccc2)nn1Cc1cc(C)no1 0.573%
COc1ccc(NC(C)=O)cc1S(=O)(=O)Nc1ccc2c(c1)OCCO2 -0.925%
CCOC(=O)/C(=C\C=C1/Sc2ccccc2N1CC)C(C)=O 24.1%
Cc1ccc(CNC(=O)CN(C)S(=O)(=O)c2cccs2)cc1 -0.967%
COc1ccc(CNC(=O)c2cccc3c(-c4cnn(C)c4)coc23)cc1OC 18.7%
COc1ccc(/C=N/n2c(=S)n(C)c3ccccc32)cc1OC 14.7%
CCOc1ccc(C(C)=O)cc1COC(=O)CCc1cc(OC)c(OC)c(OC)c1 1.66%
CCCOc1ccccc1/C=C1\SC(N2CCCCC2)=NC1=O 6.39%
Cc1ccccc1Nc1nc(N)nc(CN(C)Cc2ccccc2Cl)n1 3.15%
COc1ccc(C2=Nn3c(nnc3-c3ccccn3)SC2)cc1OC 29.2%
Cc1ccccc1Nc1c(-c2ccc(N3CCOCC3)cc2)nc2cnccn12 3.07%
O=C(c1cc2c(s1)CCCCC2)N1CCN(c2ncccn2)CC1 0.382%
COc1cc(O)c(CCC(=O)c2cc(OC)c(OC)c(OC)c2)c(OC)c1 4.11%
COc1ccc(/C=N/NC(=O)C(C)n2cnc3ccccc3c2=O)cc1OC (centres undefined) 10%
COc1ccc(OC)c(Nc2nc(-c3sc(C)nc3C)cs2)c1 21.7%
CCOC(=O)c1c(C)c(C(=O)N2CCCCCC2)c(C)n1C 2.73%
C=CCSc1nc2c(c(=O)[nH]c(=O)n2C)n1CC 6.88%
CCOC(=O)C1CCN(C(=O)c2cc3c(-c4ccc(OC)c(OC)c4)nn(C)c3s2)CC1 21.4%
CCC(=O)Nc1sc2c(c1C#N)CCCCC2 0.438%
Fc1cnc(N2CCOCC2)nc1N1CCc2ccccc21 18.5%
COc1ccc(-c2ccc3ccccc3n2)cc1OC 9.04%
CCOc1ncccc1C(=O)Nc1ccc2nc(C)sc2c1 6.12%
CCOc1ccc(-c2cn3ccccc3n2)cc1[N+](=O)[O-] 2.72%
Cc1cc(Cl)c2oc(C(=O)NCCC3CCCCO3)c(C)c2c1 (centres undefined) 12.6%
CC(C)(C)c1ccc(/C=C2/SC(N3CCCC3)=NC2=O)cc1 7.27%
C=CCn1c(SCc2ccc(Cl)cc2)nc2c1c(=O)[nH]c(=O)n2C 10.8%
CCN(CC)c1nc(OC)nc(-n2nnc(C(C)=O)c2C)n1 0.606%
COc1ccc(-c2cc(C(=O)N3CCCC(C(F)(F)F)C3)c3ccccc3n2)cc1OC (centres undefined) 7.08%
COc1ccc(/C=N/NC(=O)c2cccnc2)cc1CSc1ccccn1 0.398%
COc1ccc(C(CCN2CCCC2)c2c(OC)cc(OC)c3c(-c4ccccc4)cc(=O)oc23)cc1 (centres undefined) 7.79%
Clc1cccc2sc(N3CCOCC3)nc12 -0.197%
O=[N+]([O-])c1cnccc1NC1CCCCC1 3.34%
COc1ccc(-c2csc(-c3cccnc3)n2)cc1C 5.51%
CCOc1cc2[nH]c(=S)n(CCCOC)c(=O)c2cc1OCC 1.87%
Cc1ccc(C)c(NS(=O)(=O)c2ccc(-c3cnc(C4CC4)o3)cc2)c1 23.1%
O=C(COc1ccc(F)cc1Br)NCC1COc2ccccc2O1 (centres undefined) 18.3%
CCOC(=O)c1c(C)n(-c2ccccc2)c2ccc(OCCN(C)C)cc12 1.98%
CC1(C)Cc2c(sc3c2C(=O)N(c2ccccc2)C2=NCCCN23)CO1 8.53%
Cc1nc(-c2ccc([N+](=O)[O-])cc2)c(-c2ccccc2)o1 17.5%
O=C1CN(c2nc(-c3cccnc3)nc3sc4c(c23)CCCC4)CCN1 26.3%
COc1ccc(-c2cc(C3CC3)nc(N)c2C#N)cc1 3.1%
COc1ccc(-c2cnc3c(NC(C)=O)cc(-c4cccc(C(=O)NCCO)c4)cn23)cc1OC 27.5%
Cc1ccccc1Nc1c([N+](=O)[O-])ccc2nonc12 18.7%
COc1cccc(OCCNc2cc(N3CCOCC3)ccc2[N+](=O)[O-])c1 23%
N#Cc1nc(Cc2ccccc2)oc1NCc1ccccc1 2.87%
CCOC(=O)c1c(C)c(C(=O)OCC)n(C)c1C 5.85%
OC(COc1c(Br)cc(Br)cc1Br)CN1CCOCC1 (centres undefined) 1.84%
N#Cc1sc2nc3c(cc2c1N)CCCC3 21.3%
CC(C)Nc1nc(NC(C)C)nc(N(C)n2cnnc2)n1 -0.81%
N#Cc1nc(-c2ccccc2F)oc1NCc1cccc2c1OCO2 9.1%
Cc1ccc(OCCOc2cccc3ccc(C)nc23)c([N+](=O)[O-])c1 1.31%
COc1cc2c(cc1OC)C(CC#N)=NC(C)(C)C2 7.97%
Cc1nc(N2CCOCC2)c2c(C)c(C(=O)Nc3ccccc3C(F)(F)F)sc2n1 5.01%
COc1ccc(CN(C)C(=O)c2ccc3ccccc3n2)cc1F 22%
O=[N+]([O-])c1ccc(Cc2nnc(-c3ccccc3Cl)o2)cc1 2.53%
CCCS/C(N)=N/N=C/c1ccccc1O 5.39%
CC(=O)NC(C)(c1ccccc1)c1nc(-c2cnc3ccccc3c2)cs1 (centres undefined) 8.36%
CCn1c(=O)cc(OCC(=O)N2CCN(C(=O)c3ccco3)CC2)c2ccccc21 0.189%
CC(=O)c1cccc(Nc2nc(=O)c3cccnc3s2)c1 3.72%
Nc1ncnc(Oc2ccccc2F)c1[N+](=O)[O-] -0.279%
COc1cc2c(cc1OC)CN(C(=O)c1ccc(N3CCCC3)c([N+](=O)[O-])c1)CC2 4.86%
COc1ccc(-c2ccc(=O)n(Cc3cc(=O)n4ccccc4n3)n2)cc1 8.87%
COC(=O)C(C)Sc1nc2c(c(=O)[nH]c(=O)n2C)n1CCC(C)C (centres undefined) 29.1%
O=C(NCc1ccccn1)C1CC(c2ccccc2O)=NO1 (centres undefined) 0.181%
COc1ccc(CSc2nnnn2-c2ccccc2)cc1 0.383%
Cc1nc(-c2cccs2)sc1C(=O)NN -0.432%
CCOc1ccc2[nH]c(=O)c(CN(CCN3CCCC3)C(=S)Nc3ccccc3OCC)cc2c1 7.25%
O=S1(=O)N=C(Nc2ccc(N3CCOCC3)c(Cl)c2)c2ccccc21 2.79%
COC(=O)c1ccc(OCC2c3cc(OC)c(OC)cc3CCN2C(=O)Cc2ccc(OC)c(OC)c2)cc1 (centres undefined) 12.8%
CCCn1cnc2c(SCc3ccccc3F)nc(N)nc21 18.3%
CCCc1nnc2c(N(C)S(=O)(=O)c3ccc(C)cc3)nc3ccccc3n12 10.2%
CCOC(=O)C1=C(C)NC(SCC(N)=O)=C(C#N)C1c1ccccc1 (centres undefined) 3.93%
CCCNC(=O)c1ccc(COc2ccc(C(C)(C)C)cc2)o1 1.75%
CC(=O)N[C@@H](CS)C(=O)O -0.63% [at 92.2 µM]
C=CCOC(=O)C1=C(C)Nc2nnnn2C1c1cccc(OC)c1OC (centres undefined) -0.198%
CCOC(=O)c1c(NC(=O)CSc2nc3cc(Cl)ccc3c(=O)n2Cc2ccco2)sc(C(=O)N(C)C)c1C 1.92%
COc1ccc(/C=C2\N=C3CCCCCN3C2=O)cc1OC 7.49%
CCOc1cc(/C=N/O)ccc1OCc1ccc(F)cc1 4.36%
C=CCc1c(C)nc(SC)nc1Nc1ccc(C)cc1 3.46%
CC12CCC(C(=O)N(c3cccc(Cl)c3)C1=O)C2(C)C (centres undefined) -0.253%
CCOC(=O)c1cc(NC(=O)c2cccnc2)cc(C(=O)OCC)c1 0.228%
COc1ccccc1NC(=O)COC(=O)/C=C/c1ccc(OC)c(OC)c1 8.77%
CSc1nnc2n(-c3ccccc3)c(=O)c3c4c(sc3n12)CCC4 3.74%
O=C(Cc1ccc2c(c1)CCCC2)Nc1ccccc1Cl 3.74%
COc1ccc(Cl)cc1C(=O)OCC(=O)Nc1cccnc1Cl 1.77%
Nc1cc(OC(=O)c2ccc(F)cc2)nn1S(=O)(=O)c1ccc(F)cc1 -0.803%
COc1ccc(N/C=C/C(=O)c2cc(OC)c(OC)c(OC)c2)cc1 24.8%
CCOC(=O)c1oc2c(c1C)/C(=N/O)CCC2 14.1%
COc1ccccc1C(=O)Nc1cccc2cccnc12 9.08%
COc1cc(/C=N/NC(=O)c2cc(-c3c(C)nn(-c4ccccc4)c3C)n[nH]2)ccc1O 13.1%
Nc1nc(N)c2ncc(C(=O)CCc3ccccc3)nc2n1 -0.536%
CCOc1ccc(-c2nnc3n2N=C(c2ccc(OC)cc2)CS3)cc1 8.96%

Potency, active:
CCn1nc(NC(=O)c2cccnc2)c2cc3ccccc3nc21 20.6 µM

Reference: PubChem BioAssay AID743262 (National Center for Advancing Translational Sciences (NCATS), 2014)
